Measured values: the supplement of paper PMC8728848
Some of the results follow.

Assays:
Test in all cases: glycan array binding signal (z-score within array); higher = stronger binding
Details in all cases: glycan notation: IUPAC condensed, linker removed
Fuc(a1-2)Gal = target: Fuc(a1-2)Gal
Summary of the method: (§1)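 Glycan array data came from 3228 arrays in the Consortium for Functional Glycomics database, and only arrays with an available protein sequence were kept. Glycan names were put into IUPAC-condensed notation, and columns mapping to the same glycan were averaged. The binding signal is a within-array Z-score, averaged across arrays of one protein sequence run at different concentrations or buffers and across linkers. A negative Z-score can be read as non-binding.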

Fuc(a1-2)Gal(b1-3)GalNAc = target: Fuc(a1-2)Gal(b1-3)GalNAc
Summary of the method: as §1

[1] = target: Fuc(a1-2)Gal(b1-3)GalNAc(b1-3)Gal
Summary of the method: as §1

[2] = target: Fuc(a1-2)Gal(b1-3)GalNAc(b1-3)Gal(a1-4)Gal(b1-4)Glc
Summary of the method: as §1

[3] = target: Fuc(a1-2)Gal(b1-3)GalNAc(b1-4)[Neu5Ac(a2-3)]Gal(b1-4)Glc
Summary of the method: as §1

Fuc(a1-2)Gal(b1-3)GlcNAc = target: Fuc(a1-2)Gal(b1-3)GlcNAc
Summary of the method: as §1

[4] = target: Fuc(a1-2)Gal(b1-3)GlcNAc(b1-3)Gal(b1-4)Glc
Summary of the method: as §1

[5] = target: Fuc(a1-2)Gal(b1-3)[Fuc(a1-4)]GlcNAc
Summary of the method: as §1

Fuc(a1-2)Gal(b1-4)Glc = target: Fuc(a1-2)Gal(b1-4)Glc
Summary of the method: as §1

Fuc(a1-2)Gal(b1-4)Glc6S = target: Fuc(a1-2)Gal(b1-4)Glc6S
Summary of the method: as §1

Fuc(a1-2)Gal(b1-4)GlcNAc = target: Fuc(a1-2)Gal(b1-4)GlcNAc
Summary of the method: as §1

[6] = target: Fuc(a1-2)Gal(b1-4)GlcNAc(b1-3)Gal(b1-4)GlcNAc
Summary of the method: as §1

[7] = target: Fuc(a1-2)Gal(b1-4)GlcNAc(b1-3)Gal(b1-4)GlcNAc(b1-3)Gal(b1-4)GlcNAc
Summary of the method: as §1

[8] = target: Fuc(a1-2)Gal(b1-4)GlcNAc6S
Summary of the method: as §1

[9] = target: Fuc(a1-2)Gal(b1-4)[Fuc(a1-3)]GlcNAc
Summary of the method: as §1

[10] = target: Fuc(a1-2)Gal(b1-4)[Fuc(a1-3)]GlcNAc(b1-3)Gal(b1-4)[Fuc(a1-3)]GlcNAc
Summary of the method: as §1

[11] = target: Fuc(a1-2)Gal(b1-4)[Fuc(a1-3)]GlcNAc(b1-3)Gal(b1-4)[Fuc(a1-3)]GlcNAc(b1-3)Gal(b1-4)[Fuc(a1-3)]GlcNAc
Summary of the method: as §1

Fuc(a1-2)Gal6S(b1-4)Glc = target: Fuc(a1-2)Gal6S(b1-4)Glc
Summary of the method: as §1

[12] = target: Fuc(a1-2)Gal6S(b1-4)Glc6S
Summary of the method: as §1

[13] = target: Fuc(a1-2)Gal6S(b1-4)GlcNAc
Summary of the method: as §1

Fuc(a1-2)[Gal(a1-3)]Gal = target: Fuc(a1-2)[Gal(a1-3)]Gal
Summary of the method: as §1

[14] = target: Fuc(a1-2)[Gal(a1-3)]Gal(b1-3)GlcNAc
Summary of the method: as §1

[15] = target: Fuc(a1-2)[Gal(a1-3)]Gal(b1-4)Glc
Summary of the method: as §1

[16] = target: Fuc(a1-2)[Gal(a1-3)]Gal(b1-4)GlcNAc
Summary of the method: as §1

[17] = target: Fuc(a1-2)[Gal(a1-3)]Gal(b1-4)[Fuc(a1-3)]GlcNAc
Summary of the method: as §1

[18] = target: Fuc(a1-2)[Gal(a1-4)]Gal(b1-4)GlcNAc
Summary of the method: as §1

[19] = target: Fuc(a1-2)[GalNAc(a1-3)]Gal
Summary of the method: as §1

[20] = target: Fuc(a1-2)[GalNAc(a1-3)]Gal(b1-3)GlcNAc
Summary of the method: as §1

[21] = target: Fuc(a1-2)[GalNAc(a1-3)]Gal(b1-4)Glc
Summary of the method: as §1

[22] = target: Fuc(a1-2)[GalNAc(a1-3)]Gal(b1-4)GlcNAc
Summary of the method: as §1

[23] = target: Fuc(a1-2)[GalNAc(a1-3)]Gal(b1-4)[Fuc(a1-3)]GlcNAc
Summary of the method: as §1

[24] = target: Fuc(a1-2)[GalNAc(a1-4)]Gal(b1-4)GlcNAc
Summary of the method: as §1

[25] = target: Fuc(a1-2)[GalNAc(b1-3)]Gal
Summary of the method: as §1

Fuc(a1-3)GlcNAc = target: Fuc(a1-3)GlcNAc
Summary of the method: as §1

[26] = target: Fuc(a1-3)[Gal(b1-4)]Glc6S
Summary of the method: as §1

[27] = target: Fuc(a1-3)[Gal(b1-4)]GlcNAc
Summary of the method: as §1

[28] = target: Fuc(a1-3)[Gal(b1-4)]GlcNAc(b1-2)Man(a1-3)[Fuc(a1-3)[Gal(b1-4)]GlcNAc(b1-2)Man(a1-6)]Man(b1-4)GlcNAc(b1-4)GlcNAc
Summary of the method: as §1

[29] = target: Fuc(a1-3)[Gal(b1-4)]GlcNAc(b1-2)Man(a1-6)[Gal(b1-4)GlcNAc(b1-2)Man(a1-3)]Man(b1-4)GlcNAc(b1-4)GlcNAc
Summary of the method: as §1

[30] = target: Fuc(a1-3)[Gal(b1-4)]GlcNAc(b1-3)Gal(b1-3)[Fuc(a1-4)]GlcNAc
Summary of the method: as §1

[31] = target: Fuc(a1-3)[Gal(b1-4)]GlcNAc(b1-4)Gal(b1-4)[Fuc(a1-3)]GlcNAc
Summary of the method: as §1

[32] = target: Fuc(a1-3)[Gal(b1-4)]GlcNAc(b1-4)Gal(b1-4)[Fuc(a1-3)]GlcNAc(b1-4)Gal(b1-4)[Fuc(a1-3)]GlcNAc
Summary of the method: as §1

[33] = target: Fuc(a1-3)[Gal(b1-4)]GlcNAc6S
Summary of the method: as §1

[34] = target: Fuc(a1-3)[Gal3S(b1-4)]Glc6S
Summary of the method: as §1

[35] = target: Fuc(a1-3)[Gal3S(b1-4)]GlcNAc
Summary of the method: as §1

[36] = target: Fuc(a1-3)[Gal3S(b1-4)]GlcNAc6S
Summary of the method: as §1

B1: Langerin CRD (Homo sapiens), Q9UJ71 (protein)
chain: QVVSQGWKYFKGNFYYFSLIPKTWYSAEQFCVSRNSHLTSVTSESEQEFLYKTAGGLIYWIGLTKAGMEGDWSWVDDTPFNKVQSVRFWIPGEPNNAGNNEHCGNIKAPSLQAWNDAPCDKTFLFICKRPYVPSEPSAWSHPQFEK
- glycan array binding signal (z-score) (Fuc(a1-2)Gal): 0.647
- glycan array binding signal (z-score) (Fuc(a1-2)Gal(b1-3)GalNAc): -0.389
- glycan array binding signal (z-score) [1]: -0.3
- glycan array binding signal (z-score) [2]: -0.251
- glycan array binding signal (z-score) [3]: -0.54
- glycan array binding signal (z-score) (Fuc(a1-2)Gal(b1-3)GlcNAc): 0
- glycan array binding signal (z-score) [4]: 0.033
- glycan array binding signal (z-score) [5]: 0.233
- glycan array binding signal (z-score) (Fuc(a1-2)Gal(b1-4)Glc): 0.866
- glycan array binding signal (z-score) (Fuc(a1-2)Gal(b1-4)Glc6S): 0.793
- glycan array binding signal (z-score) (Fuc(a1-2)Gal(b1-4)GlcNAc): -0.118
- glycan array binding signal (z-score) [6]: 0.495
- glycan array binding signal (z-score) [7]: -0.328
- glycan array binding signal (z-score) [8]: 0.385
- glycan array binding signal (z-score) [9]: 0.368
- glycan array binding signal (z-score) [10]: 0.292
- glycan array binding signal (z-score) [11]: -0.112
- glycan array binding signal (z-score) (Fuc(a1-2)Gal6S(b1-4)Glc): 1.29
- glycan array binding signal (z-score) [12]: 2.79
- glycan array binding signal (z-score) [13]: 1.18
- glycan array binding signal (z-score) (Fuc(a1-2)[Gal(a1-3)]Gal): 4.04
- glycan array binding signal (z-score) [14]: -0.398
- glycan array binding signal (z-score) [15]: -0.019
- glycan array binding signal (z-score) [16]: -0.266
- glycan array binding signal (z-score) [17]: -0.349
- glycan array binding signal (z-score) [18]: 0.546
- glycan array binding signal (z-score) [19]: 3.31
- glycan array binding signal (z-score) [20]: -0.448
- glycan array binding signal (z-score) [21]: -0.5
- glycan array binding signal (z-score) [22]: -0.319
- glycan array binding signal (z-score) [23]: -0.408
- glycan array binding signal (z-score) [24]: 0.525
- glycan array binding signal (z-score) [25]: 1.16
- glycan array binding signal (z-score) (Fuc(a1-3)GlcNAc): 1.52
- glycan array binding signal (z-score) [26]: -0.557
- glycan array binding signal (z-score) [27]: -0.507
- glycan array binding signal (z-score) [28]: -0.56
- glycan array binding signal (z-score) [29]: -0.425
- glycan array binding signal (z-score) [30]: -0.405
- glycan array binding signal (z-score) [31]: -0.427
- glycan array binding signal (z-score) [32]: -0.354
- glycan array binding signal (z-score) [33]: -0.281
- glycan array binding signal (z-score) [34]: -0.452
- glycan array binding signal (z-score) [35]: -0.465
- glycan array binding signal (z-score) [36]: -0.293
